In PubChem BioAssay AID360 (National Center for Advancing Translational Sciences (NCATS), 2006) one finds Potency data, which are given here for 25 compounds.

The whole screen tested about 48,000 compounds, of which about 550 (1.1%) were called active. Another 4% or so got no clear call; they are omitted. Cut-off read from the data, not from the text of the source: active = potency below about 15 µM; inconclusive = mostly about 16 µM to 33 µM; inactive = weaker than that. Some of the results follow.
Potency is the fitted concentration of half-maximal effect.

Sequence of UniProt P04062 (P04062 whole entry, looked up): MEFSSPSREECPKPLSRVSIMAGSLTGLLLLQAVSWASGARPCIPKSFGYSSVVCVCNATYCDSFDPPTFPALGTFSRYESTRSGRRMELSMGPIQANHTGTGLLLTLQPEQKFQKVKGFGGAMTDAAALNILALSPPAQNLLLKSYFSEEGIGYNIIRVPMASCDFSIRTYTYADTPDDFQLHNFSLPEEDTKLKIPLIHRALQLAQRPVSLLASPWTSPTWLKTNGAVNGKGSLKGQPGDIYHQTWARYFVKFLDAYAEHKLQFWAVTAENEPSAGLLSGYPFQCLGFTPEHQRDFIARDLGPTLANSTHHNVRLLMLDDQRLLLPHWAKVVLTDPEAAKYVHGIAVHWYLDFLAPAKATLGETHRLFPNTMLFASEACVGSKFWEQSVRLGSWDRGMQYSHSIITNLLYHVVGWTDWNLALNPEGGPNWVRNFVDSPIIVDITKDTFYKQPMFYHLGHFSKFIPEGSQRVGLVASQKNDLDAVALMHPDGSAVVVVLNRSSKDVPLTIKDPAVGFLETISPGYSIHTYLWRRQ

This experiment has as its target Lysosomal acid glucosylceramidase (Homo sapiens) (UniProt P04062). Briefly: Glucocerebrosidase.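 Note: the screen sought inhibitors.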 The following applies: purified enzyme, resorufin glucoside fluorescence (screen aimed at inhibitors), 20 min; series mostly up to 77 µM. The method, boiled down:
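Normal human glucocerebrosidase (0.2 nM final) was assayed with resorufin β-D-glucopyranoside (30 uM final) in 50mM citric acid/KH2PO4, 10mM sodium taurocholate, 0.01% tween-20, pH 5.9. Compounds were titrated; fluorescence (Ex 548, Em 600) read after 20 min at RT.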
In the case of `CCOC(=O)C1CCN(c2c(NCCCN3CCN(Cc4ccccc4)CC3)c(=O)c2=O)CC1`, the Potency was inactive: > 76.9 µM. As for `O=C(O)c1cccc(Cn2cccn2)c1`, the Potency was inactive: > 76.9 µM. For `CC1Cc2cc(C3(O)C(=O)c4ccccc4C3=O)ccc2N1` (stereo not given) the value was inactive: > 76.9 µM; for `CC(=O)OCC(=O)c1ccc2ccn(C(C)=O)c2c1`, inactive: > 76.9 µM. For `CCCCn1cnc2c1c(=O)n(C)c(=O)n2C` the value was inactive: > 76.9 µM; for `COc1ccc(S(=O)(=O)NCCC(C)C)cc1OC`, inactive: > 76.9 µM; for `CC(C)C(NS(=O)(=O)c1cccs1)C(=O)N1CCc2ccccc2C1` (stereo not given), inactive: > 76.9 µM. The result for `CCOC(=O)N1CCN(S(=O)(=O)c2cc(Cl)ccc2Cl)CC1` reads inactive: > 76.9 µM; that for `CCOC(=O)CSc1nnnn1-c1cc(OC)c(Cl)cc1OC`, inactive: > 76.9 µM. `CCCCn1c(SCC(=O)Nc2cccc(C)n2)nnc1-c1ccco1`: the Potency was inactive: > 76.9 µM.

Take `CC1CCN(S(=O)(=O)c2ccc3c(c2)c(=O)c(C(=O)NC2CCCC2)cn3C)CC1`: the Potency is inactive: > 76.9 µM.

Consider `CC(=O)Nc1ccc(S(=O)(=O)N2CCN(CCCOc3cc(C)ccc3C)CC2)cc1`, for which the Potency was inactive: > 76.9 µM. For the compound `O=C(Cn1cnc2c(cnn2-c2ccccc2)c1=O)N1CCCc2ccccc21`, the Potency is inactive: > 76.9 µM. Take `CCCOc1ccc(-c2nnn(CC(=O)c3ccc4c(c3)OCCO4)n2)cc1`: the Potency is inactive: > 76.9 µM. With `CCNC(=O)COc1ccc(Br)cc1Cl`, the Potency was inactive: > 76.9 µM. `Cc1c(NC(=O)CC(O)(C(F)(F)F)C(F)(F)F)c(=O)n(-c2ccccc2)n1C`: the Potency is inactive: > 76.9 µM. For the compound `Cc1ccc(N2CC(C(=O)OCC(=O)C(C)(C)C)CC2=O)cc1` (stereo not given), the Potency was inactive: > 76.9 µM. Take `Cc1cccc(-c2noc(CN(C(C)C)S(=O)(=O)c3ccc(F)cc3)n2)c1`: the Potency is inactive: > 76.9 µM. For `CCC(C)NS(=O)(=O)c1ccc(S(=O)(=O)Nc2cc3c(cc2C(C)=O)OCO3)cc1` (stereo not given) the value was inactive: > 76.9 µM; for `CC1CCN(CCCNC(=O)c2ccc(CS(=O)(=O)Cc3ccccc3F)o2)CC1`, inactive: > 76.9 µM; for `Cc1ccc(-c2nnc(SCC(=O)N3CCCC3)o2)cc1C`, inactive: > 76.9 µM. As for `COCCn1nnnc1C(c1cccc(C#N)c1)N1CCCCCC1` (stereo not given), the Potency was inactive: > 76.9 µM. In the case of `Cc1cc(S(=O)(=O)NCc2ccc(S(N)(=O)=O)cc2)c(C)s1`, the Potency is inactive: > 76.9 µM.

As to `CC1Cc2ccccc2N1C(=O)CSCC(=O)O` (stereo not given), the Potency is inactive: > 76.9 µM. As to `CCOC(=O)C1(c2ccccc2)NC(c2ccc(N(C)C)cc2)C2C(=O)N(C)C(=O)C21` (stereo not given), the Potency is inactive: > 76.9 µM.
